Screen size: about 310,000 compounds; about 18,000 (5.8%) were called active. Inconclusive means that the source gave no clear call. Such entries were picked first, then a sample of the others. Calls follow the shape of the dose curve; as a rule, active = well fitted inhibition curve with a large enough effect; inconclusive = small, poorly fitted or top-dose-only effect, or another doubt; inactive = no such curve, though single readings can be large or run the other way. Potencies of inconclusive entries are left out as doubtful fits.
test: Primary qHTS for delayed death inhibitors of the malarial parasite plastid, 48 hour incubation; conditions: P. falciparum luciferase growth in erythrocytes; series mostly up to 28.7 µM; activity change, negative = inhibition: at the top concentration
Summary of the method: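 In quantitative HTS format, infected erythrocytes bearing luciferase-reporter parasites were treated for a single generation at 37 C. Luminescence after adding detection reagent served as the growth measure.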
% is scaled to controls: 0 for no effect and ±100 for the full control effect; potency is read from the fitted curve at half-maximal effect; tags tell the direction and shape of the fitted curve.

| SMILES | Potency | activity change, negative = inhibition |
| --- | --- | --- |
| CCOC(=O)C1=C(CSc2nc3ccccc3s2)NC(=O)NC1c1cccc([N+](=O)[O-])c1 (centres undefined) | active: 5.86 µM |  |
| Cc1ccccc1N(C(=O)c1snc(C(N)=O)c1N)C(C(=O)NCc1ccccc1)c1ccc(O)cc1 (centres undefined) | inconclusive [inhibitor, partial curve] |  |
| Cc1cc(C)c(C)c(C(=O)CSc2nnc(-c3ccc4[nH]c(C)c(C)c4c3)o2)c1C | active: 13.1 µM |  |
| CC(=O)Nc1ccc(S(=O)(=O)N2CCN(CC(O)COc3ccc4ccccc4c3)CC2)cc1 (centres undefined) | inconclusive [inhibitor, partial curve] |  |
| CC(C)NC(=S)NC(=O)c1ccc(-c2ccccc2)cc1 | inconclusive [inhibitor, single point] |  |
| Clc1ccc(C2=Nn3c(nnc3-c3cc(-c4ccccc4)n[nH]3)SC2)cc1 | inconclusive [inhibitor, partial curve] |  |
| Cc1ccc(C(C(=O)NC(C)(C)C)N(CC2CCCO2)C(=O)c2csnn2)cc1 (centres undefined) | inconclusive [inhibitor, partial curve, poor fit] |  |
| Cc1cc(OCC(=O)Nc2cccnc2)c2c(C)cc(=O)oc2c1 | inconclusive [inhibitor, single point] |  |
| O=C(NC(=S)N(CCO)Cc1ccccc1)c1ccc(S(=O)(=O)N2CCCC2)cc1 |  | inactive: -3.92% |
| CC(=O)N1N=C2/C(=C/c3ccccc3)CCCC2C1c1ccccc1 (centres undefined) |  | inactive: 113% |
| CCC1=C(OC(=O)N(CC)CC)N2C(=O)OC(=NCC3CC3)[C@]2(Cc2ccccc2)[C@H]2C1=CC[C@H]1C(=O)N(c3ccccc3)C(=O)[C@H]12 | active: 2.62 µM |  |
| CC1Cc2nc(SCC(=O)NCc3ccco3)n(Cc3ccccc3)c(=O)c2S1 (centres undefined) | inconclusive [inhibitor, partial curve] |  |
| COC(CNc1nc(SC)nc2sc3c(c12)CCN(C)C3)OC | inconclusive [inhibitor, single point] |  |
| CC1Sc2ccc(S(=O)(=O)N3CCC(C(=O)Nc4ccc(Cl)cc4)CC3)cc2NC1=O (centres undefined) | inconclusive [inhibitor, single point] |  |
| Cc1nc(C)c(-c2csc(Nc3ccc(C(=O)O)c(O)c3)n2)s1 |  | inactive: -14% |
| O=C1CC(c2cccc(Cl)c2)CC(O)=C1C=NC1CCCC1 (centres undefined) | inconclusive [inhibitor, partial curve, poor fit] |  |
| Cc1ccc2nc(-c3cccnc3)c(Nc3ccccc3C)n2c1 | inconclusive [inhibitor, single point] |  |
| COc1ccc(/C=N/NC(=O)CC#N)cc1Oc1nc(Cl)ncc1F |  | inactive: -17.8% |
| O=c1c2c3nc4ccccc4nc3n(-c3ccc4c(c3)OCCO4)c2ncn1CC1CCCO1 (centres undefined) | inconclusive [inhibitor, single point] |  |
| O=C(c1nc2ccccc2s1)N1CCN(c2ccccn2)CC1 |  | inactive: 37.9% |
| Cc1cccc(N2CCN(Cc3c(C)n(C)n(-c4ccccc4)c3=O)CC2)c1C | inconclusive [inhibitor, partial curve, poor fit] |  |
| Cc1nc2ccccc2c(=O)n1/N=C/c1c(O)ccc2oc3c(c12)CCCC3 | inconclusive [inhibitor, single point] |  |

| SMILES | Potency | activity change, negative = inhibition |
| --- | --- | --- |
| COc1ccccc1C1CCCN1Cc1nc(-c2ccc(C)s2)oc1C (centres undefined) | active: 4.65 µM |  |
| COCC(C)NC(=O)c1cc2cc(OC)ccc2[nH]1 (centres undefined) |  | inactive: 4.04% |
| C#CCOCCOCCOCCNc1nc(N2CCN(C(=O)CCCCCCCCCCNC(=O)[C@H](CCCCN)n3cc(CCO)nn3)CC2)nc(N2CCN(C(=O)CCCCCCCCCCNC(=O)[C@@H]([C@H](C)O)n3cc(C)nn3)CC2)n1 | active: 0.294 µM |  |
| O=C(COC(=O)C1(c2ccccc2F)CCCC1)NCc1cccs1 | inconclusive [inhibitor, single point] |  |
| O=S(=O)(c1ccccc1)c1nc(NCc2cccnc2)sc1Cl | inconclusive [inhibitor, single point] |  |
| O=C(Nc1ccccc1N1CCOCC1)C1Cc2ccccc2CN1C(=O)c1ccco1 (centres undefined) | active: 10.4 µM |  |
| O=C(NCc1cc2ccccc2[nH]1)c1ccccc1F |  | inactive: 77.1% |
| O=S(=O)(Nc1ccc2c(c1)OCO2)c1cccc(Br)c1 | inconclusive [inhibitor, single point] |  |
| COc1cc2c(cc1OC)-c1cc(NC3CCCC3)nc(=O)n1CC2 | inconclusive [inhibitor, single point] |  |
| CC[N+](CC)(CC=C(C)C)CC(=O)OC |  | inactive: 7.17% |
| CN1CCN(NC(=O)c2cc(-c3ccc(Br)s3)nc3ccccc23)CC1 | inconclusive [inhibitor, single point] |  |
| Cc1ccc(N/N=C/c2ccc(N3CCOCC3)cc2)cc1C |  | inactive: -16.4% |
| O=C(CCc1ccccc1)N/N=C/c1cc(Br)ccc1O | active: 4.15 µM |  |
| CCOc1ccc(-c2c(C(=O)N/N=C/c3sccc3C)nnn2-c2nonc2N)cc1 |  | inactive: 0% |
| CCOC(=O)Cn1nnnc1C(CC)N(Cc1cc2ccc(C)cc2[nH]c1=O)C1CCCC1 (centres undefined) | inconclusive [inhibitor, single point] |  |
| Cc1cc(C)c2c(c1)/C(=N/NC(=O)c1cc(C)oc1C)CCC2 | inconclusive [inhibitor, single point] |  |
| CC1=NN(C(=O)c2ccco2)C(O)(c2ccccc2)C1 (centres undefined) | inconclusive [inhibitor, partial curve] |  |
| COc1ccc(NC(=O)c2ccc3c(c2)OCCO3)cc1OC |  | inactive: 216% |
| Cc1c(Cl)cccc1NC(=O)NNC(=O)CCc1ccccc1 | inconclusive [inhibitor, single point] |  |
| COc1ccc(CCNC(=O)c2cccc(S(=O)(=O)N3CCCC3)c2)cc1 | inconclusive [inhibitor, single point] |  |
| Nc1c(C(=O)NC2CCCC2)c2nc3ccccc3nc2n1CC1CCCO1 (centres undefined) | active: 10.4 µM |  |
| CCC1CCC2(CC1)NC(=O)N(CC(=O)Nc1cccc(S(=O)(=O)N(C)c3ccccc3)c1)C2=O (centres undefined) | inconclusive [inhibitor, partial curve, poor fit] |  |

Reference: PubChem BioAssay AID504832 (National Center for Advancing Translational Sciences (NCATS), 2011)
